Test results as given in PubChem BioAssay AID493208 (National Center for Advancing Translational Sciences (NCATS), 2011).
Screen size: about 44,000 compounds; about 340 (0.77%) were called active. Not shown: some 5% with an inconclusive outcome. Calls follow the shape of the dose curve; as a rule, active = well fitted inhibition curve with a large enough effect; inconclusive = small, poorly fitted or top-dose-only effect; inactive = flat fitted curve, though single readings scatter. Some of the results follow.

assay: Acumen qHTS Assay for Inhibitors of the mTORC1 Signaling Pathway in MEF (Tsc2-/-, p53-/-) Cells: Sytravon; settings: phospho-rpS6 immunofluorescence/PI, 24 h; series mostly up to 38.3 µM; activity change, negative = inhibition: at the top concentration;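 also: plate controls were DMSO for no effect and rapamycin for full effect; nearly all actives have a fitted effect of over 50% in size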
How it was run: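 Plate MEFs (Tsc2-/-, p53-/-, empty vector) in DMEM/10% FBS; after 24 h add compound, incubate 24 h at 37 degree Celsius; fix in PFA/TX-100, block, stain phospho-rpS6 and 10 uM PI; scan at 488 nm; report % positive cells.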

Activity change, negative = inhibition, inactive:
CCc1ccc(CNc2ncnc3onc(-c4ccc(Cl)cc4)c23)cc1 -14.5%, COc1ccc(-c2cc(C(F)(F)F)n3nc(C(=O)Nc4sc5c(c4C(=O)OC(C)C)CCCC5)cc3n2)cc1OC -0.262%, COc1ccc(N2CCN(C(CNC(=O)c3cccc(OC)c3)c3cccnc3)CC2)cc1 (stereo not drawn) -4.89%, CCN(CC)C(=O)C1CCN(c2cc(C)nc3c(-c4ccc(OC)c(OC)c4)c(C)nn23)CC1 -3.58%, Cn1c(C(=O)N2CCCC(C(=O)N3CCN(c4ccccc4)CC3)C2)cc2sccc21 (stereo not drawn) -1.63%, COc1ccc(NC(=O)Cn2c(=O)n(-c3ccc(C)c(C)c3)c(=O)c3c4c(sc32)CCCCC4)cc1Cl 1.65%, CCc1ccc(NC(=O)CSc2cn(CC(=O)N3CCOCC3)c3ccccc23)cc1 2.32%, CCCCNC(=O)CSC1=Nc2ccccc2C2=NC(CCC(=O)NCc3ccccc3OC)C(=O)N12 (stereo not drawn) -1.92%, CC(CC(=O)NCc1ccc(Cl)cc1Cl)CC1=NS(=O)(=O)c2ccccc2N1 (stereo not drawn) -3.83%, COc1ccc(CCNC(=O)c2cc(=O)c3c(C)cc(C)cc3o2)cc1OC -7.77%, COC(=O)c1ccc(NC(=O)C(=O)NCCc2sc3nc(-c4ccc(OC)cc4)nn3c2C)cc1 0.562%, O=C(CCn1c(=O)c2cccn2c2cccnc21)NCc1ccc(Cl)cc1 1.5%, COc1ccccc1NC(=O)C1=C(C)Nc2c(C(=O)Nc3cccc(C)c3)cnn2C1c1ccccc1C (stereo not drawn) -9.99%, COc1cc2c(cc1OC)n(CC(=O)Nc1ccccc1)c(=O)n1nc(-c3ccccc3)nc21 -12.7%, Cc1ccc(/C=C/c2nc3ccccc3n2S(=O)(=O)c2cccc(Cl)c2)cc1 -5.04%, Cc1cccc(OC(=O)c2nc(SCc3ccccc3F)ncc2Cl)c1 -0.237%, CCOC(=O)c1ccc(NC(=O)Cn2cc(C(=O)c3cccs3)c3ccccc32)cc1 2.35%, Cc1ccc(Nc2nc3c(S(=O)(=O)c4ccccc4)nnn3c3ccc(Cl)cc23)c(C)c1 -6.68%, Cc1nc2ccn(Cc3cccs3)c(=O)c2cc1C(=O)NCc1ccc(Cl)cc1 -5.14%, CCCN(CCC)CCCNC(=O)c1sc2nc3n(c(=O)c2c1C)CCC3 1.5%, Cc1ccccc1OCCSc1nnc(-c2ccc([N+](=O)[O-])cc2)o1 0%, O=C(NCC(c1ccc2c(c1)OCO2)N1CCOCC1)C(=O)Nc1ccc(Cl)cc1 (stereo not drawn) -2.68%, Oc1cccc(-c2nc(-c3cccs3)c(-c3cccs3)[nH]2)c1 -9.09%, COc1ccccc1NC(=O)c1cc2c(n(-c3ccc(C)cc3)c1=O)CC(C)(C)CC2=O 3.32%, COc1ccc(CNC(=O)CSCc2ccc(C)cc2)c(OC)c1 0.914%, O=C(c1ccc2c(c1)N(Cc1cccc(Cl)c1)C(=O)c1ccccc1S2(=O)=O)N1CCN(Cc2ccccc2)CC1 -6.97%, CCc1cc2c(cc3c(=O)n(CC(=O)NC(C)C)nc(CC)n32)s1 0.0695%, CCC1CCCCN1CCCNC(=O)c1sc2nc(C)cc(C)c2c1-n1cccc1 (stereo not drawn) 0.408%, COc1ccc(CNC(=O)Cn2c(=O)n3nc(-c4cccc(F)c4)nc3c3ccccc32)cc1OC 1.71%, COc1ccc(CNC(=O)C2=Cc3cccc(OC)c3OC2)cc1OC 3.95%, O=C(Nc1ccc(F)cc1F)c1cc(CN2CCOCC2)on1 -1.79%, COc1ccc(OC)c(NS(=O)(=O)c2ccc3c(c2)CCCN3C(=O)C2CCC2)c1 0.404%, COc1cccc(C(c2sc3nc(-c4ccco4)nn3c2O)N2CCC3(CC2)OCCO3)c1 (stereo not drawn) -13.9%, CCc1ccc(CNC(=O)c2ccc(-n3c(C)cc4c3CCC(C)C4)cc2)cc1 (stereo not drawn) -11%, Cc1ccc(S(=O)(=O)Nc2ccc3c(c2)CCCN3C(=O)c2cccs2)cc1C 0.28%, COc1cc(Br)c(C2CC(=O)Nc3cc4c(cc32)OCCO4)cc1OC (stereo not drawn) -13.2%, Cc1cccc(NC(=O)C(Cc2ccccc2)N2Cc3ccccc3C2=O)c1C (stereo not drawn) 4.16%, CCc1ccc(NC(=O)c2ccc(F)c(S(=O)(=O)N3CCc4ccccc4C3)c2)cc1 -4.17%, CCc1nn(CC(=O)NCCN(CC(C)C)CC(C)C)c(=O)c2cc3sc(C)cc3n12 -3.68%, COc1ccc(-c2nc(CSc3nnc(C)n4c3cc3sccc34)c(C)o2)cc1 -10.2%, Oc1ccccc1-c1nc2ccc(Cl)cn2c1Nc1ccc2c(c1)OCCO2 -1.32%, O=C(Nc1c(C(=O)N2CCN(c3ccccc3F)CC2)oc2ccccc12)c1ccc(Br)o1 -18.2%, COc1ccc(-c2ccc(=O)n(CC(=O)Nc3ccccc3C(F)(F)F)n2)cc1 -2.12%, CCS(=O)(=O)N1CCc2cc(C(=O)Nc3cccc(NC(C)=O)c3)ccc21 -5.42%, Cc1ccc(C2c3[nH]c4ccccc4c3CCN2C(=O)CSc2ccccc2)cc1 (stereo not drawn) -5.91%, Cn1c(=O)oc2cc(S(=O)(=O)N3CCCC(C(=O)N4CCN(c5ccc(F)cc5)CC4)C3)ccc21 (stereo not drawn) -0.0585%, CC(Oc1ccc(Br)cc1)C(=O)N(Cc1nc(-c2ccccc2)no1)C(C)C (stereo not drawn) -19.5%, O=C(NCCCN1CCN(c2ccccc2)CC1)c1ccc2nc(CCc3ccccc3)oc2c1 0.0904%, Cc1ccccc1OCC(=O)Nc1nnc(S(=O)(=O)N2CCCCCC2)s1 -10.2%, CCc1nn2c(=O)cc(COC(=O)c3ccccc3NC(=O)c3ccc(C(C)(C)C)cc3)nc2s1 3.95%, CSc1cccc(NC(=O)C2CCCN(S(=O)(=O)c3ccc4c(c3)CCCN4C(C)=O)C2)c1 (stereo not drawn) -5.53%, Cc1ccc(-n2c(-c3cccc(C)c3)nc3c(cnn3-c3ccccc3)c2=O)cc1 9.46%, Cc1ccc2c(c1)c1c(c(=O)n(-c3cccc(Cl)c3)c(=O)n1CC(=O)Nc1c(C)cccc1C)n2C 1.97%, CCOC(=O)c1ccccc1NC(=O)CSc1nc2cn(CC)nc2c(=O)n1Cc1ccc(Cl)cc1 0.643%, Cc1ccc(CN2CCSc3ccc(C(=O)N4CCN(c5ccccc5)CC4)cc32)cc1 5.43%, O=C(CC1N=C2c3ccccc3N=C(SCc3ccc(Cl)cc3)N2C1=O)NCc1cccs1 (stereo not drawn) -1.98%, COc1ccc(N2CCN(C(=O)C3CCN(S(=O)(=O)c4cccs4)CC3)CC2)cc1 -14.4%, O=c1c2cc3c(cc2n(Cc2ccc(Cl)cc2)c(=O)n1Cc1nc(-c2ccccc2)no1)OCO3 0.86%, Cc1ccc(-n2c(Cc3ccccc3)nnc2SCc2nc(-c3cccs3)no2)cc1 -1.66%, O=C(Nc1cccc(Cl)c1)c1cnc2sc(N3CCCC3)nn2c1=O -12.8%, CN1C(=O)Cc2cc(S(=O)(=O)N3CCN(c4ccccc4F)CC3)ccc21 2.88%, Cc1ccc(-c2noc(C(C)NS(=O)(=O)c3ccc(C)cc3)n2)cc1 (stereo not drawn) -13.4%, COc1ccc(CNC(=O)Cc2c(C)c3cc4c(C)coc4c(C)c3oc2=O)cc1 1.45%, Cc1ccc(C)c(CN2CCCN(Cc3ccc(F)cc3)S2(=O)=O)c1 -3.5%, Cc1nc(-n2nc(C)c(Cc3ccccc3Cl)c2C)sc1C(=O)Nc1ccccc1F -3.33%, CC(=O)c1ccc(S(=O)(=O)N2CCn3cccc3C2c2ccc(C)cc2)cc1 (stereo not drawn) 0.303%, CCOC(=O)Cn1c(=O)n(CC2CCCO2)c2nc(-c3ccc(C)cc3)nc(C(N)=O)c21 (stereo not drawn) 1.85%, CC(C)c1ccc(C2=CC(c3ccc(C(C)C)cc3)n3nnnc3N2)cc1 (stereo not drawn) -0.431%, Cc1ccc2nc3c(cc(C(=O)NCC4CCCO4)c(=N)n3C(C)C)c(=O)n2c1 (stereo not drawn) -5.24%, COc1ccccc1/C=C/c1nc2ccccc2n1C(C)C -19.2%, COc1ccccc1NC(=O)C(=O)NCC(c1ccc2c(c1)OCO2)N1CCOCC1 (stereo not drawn) -8.48%, COc1ccc(Cl)cc1NC(=O)Cc1ccc(NC(=O)N2CCCCc3ccccc32)cc1 0.123%, CCc1nnc(NC(=O)CSc2nccn2-c2ccc(OC)cc2)s1 -18.8%, CCn1c(C)c(C2N3CC4(C)CN2CC(C)(C3)C4=O)c2ccccc21 (stereo not drawn) 0.135%, CSc1ccc(CCNC(=O)c2cnc3c(C)cccn3c2=O)cc1 1.92%, Cc1nc(C)c(-c2ccc(SCC(=O)Nc3ccc(Br)cc3)nn2)s1 -4.37%, CC(=O)c1cccc(-n2c(=O)c3c4c(sc3n(CC(=O)c3ccccc3)c2=O)CN(C(C)=O)CC4)c1 2.78%, Cc1ccc(C)c(CN2C(=O)c3ccccc3S(=O)(=O)c3ccc(C(=O)N(C)C4CCCCC4)cc32)c1 -0.434%, CC(=O)c1cc2c(cc1N/C(=N/S(=O)(=O)c1ccc(Cl)cc1)c1ccc(F)cc1)OCO2 2.71%, COc1cc(C(=O)Oc2c(Sc3ccccc3)c(C)nn2-c2ccccc2)cc(OC)c1OC -2.21%, CCc1ccccc1NC(=O)Nc1c[nH]c(=O)[nH]c1=O -5.39%, Cc1ccc(C)c(N2CCN(C(=O)c3ccc(NC(=O)c4nsc5ccccc45)cc3)CC2)c1 0%, Cc1ccc(CNC(=O)CCCCCn2c(=O)[nH]c3ccccc3c2=O)cc1 0.155%, Cc1nn(-c2ccccc2)c(OC(=O)C(C)C)c1Sc1ccc(Cl)cc1 6.4%, Cc1ccc(/C=C/c2onc(C)c2S(=O)(=O)N2CCC(C(=O)Nc3ccc(C)c(N(C)C)c3)CC2)cc1 -1.33%, CC1CCCN(CCCNC(=O)c2ccc3c(c2)N(Cc2ccccc2F)C(=O)c2ccccc2S3(=O)=O)C1 (stereo not drawn) 0.661%, Cc1ccccc1-c1nc(CN2CCC(C(=O)NCc3ccccc3Cl)CC2)c(C)o1 -9.97%, CCOc1ccc(N2CC(NC(=O)CCc3ccccc3)CC2=O)cc1 (stereo not drawn) -10.8%, CC(C)(C)c1ccc(NC(=O)C2CCCN(c3cnccn3)C2)cc1 (stereo not drawn) -10.4%, Cc1cc(C)c(NC(=O)Cn2c(=O)n(CC(=O)NCc3ccccc3Cl)c(=O)c3sccc32)c(C)c1 3.58%, CC(=O)c1cc2c(cc1N/C(=N/S(=O)(=O)c1ccc(C)cc1)c1ccccc1)OCO2 -3%, COC(=O)c1ccc(NC(=O)CCS(=O)(=O)c2ccc(Br)cc2)cc1 -2.21%, CCOC(=O)c1c(NC(=O)/C=C/c2ccc(OCC)cc2)sc(C)c1C 15.3%
